According to the supplement of paper PMC8728848:
Some of the results follow.

How the values were obtained:
Test in all cases: glycan array binding signal (z-score within array); higher = stronger binding
Details in all cases: glycan notation: IUPAC condensed, linker removed
[1] = molecular target: Fuc(a1-2)Gal
Outline: (§1)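 Arrays were curated from the Consortium for Functional Glycomics database, 3228 in total, and kept only where the protein sequence was available. Binding is expressed as a within-array Z-score. This score was averaged across arrays of the same protein sequence at different concentrations or buffers and across linkers, and negative values can be read as non-binding.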

[2] = molecular target: Fuc(a1-2)Gal(b1-3)GalNAc
Outline: as §1

[3] = molecular target: Fuc(a1-2)Gal(b1-3)GalNAc(b1-3)Gal
Outline: as §1

[4] = molecular target: Fuc(a1-2)Gal(b1-3)GalNAc(b1-3)Gal(a1-4)Gal(b1-4)Glc
Outline: as §1

[5] = molecular target: Fuc(a1-2)Gal(b1-3)GalNAc(b1-4)[Neu5Ac(a2-3)]Gal(b1-4)Glc
Outline: as §1

[6] = molecular target: Fuc(a1-2)Gal(b1-3)GlcNAc
Outline: as §1

[7] = molecular target: Fuc(a1-2)Gal(b1-3)GlcNAc(b1-3)Gal(b1-4)Glc
Outline: as §1

[8] = molecular target: Fuc(a1-2)Gal(b1-3)[Fuc(a1-4)]GlcNAc
Outline: as §1

[9] = molecular target: Fuc(a1-2)Gal(b1-4)Glc
Outline: as §1

[10] = molecular target: Fuc(a1-2)Gal(b1-4)Glc6S
Outline: as §1

[11] = molecular target: Fuc(a1-2)Gal(b1-4)GlcNAc
Outline: as §1

[12] = molecular target: Fuc(a1-2)Gal(b1-4)GlcNAc(b1-3)Gal(b1-4)GlcNAc
Outline: as §1

[13] = molecular target: Fuc(a1-2)Gal(b1-4)GlcNAc(b1-3)Gal(b1-4)GlcNAc(b1-3)Gal(b1-4)GlcNAc
Outline: as §1

[14] = molecular target: Fuc(a1-2)Gal(b1-4)GlcNAc6S
Outline: as §1

[15] = molecular target: Fuc(a1-2)Gal(b1-4)[Fuc(a1-3)]GlcNAc
Outline: as §1

[16] = molecular target: Fuc(a1-2)Gal(b1-4)[Fuc(a1-3)]GlcNAc(b1-3)Gal(b1-4)[Fuc(a1-3)]GlcNAc
Outline: as §1

[17] = molecular target: Fuc(a1-2)Gal(b1-4)[Fuc(a1-3)]GlcNAc(b1-3)Gal(b1-4)[Fuc(a1-3)]GlcNAc(b1-3)Gal(b1-4)[Fuc(a1-3)]GlcNAc
Outline: as §1

[18] = molecular target: Fuc(a1-2)Gal6S(b1-4)Glc
Outline: as §1

[19] = molecular target: Fuc(a1-2)Gal6S(b1-4)Glc6S
Outline: as §1

[20] = molecular target: Fuc(a1-2)Gal6S(b1-4)GlcNAc
Outline: as §1

[21] = molecular target: Fuc(a1-2)[Gal(a1-3)]Gal
Outline: as §1

[22] = molecular target: Fuc(a1-2)[Gal(a1-3)]Gal(b1-3)GlcNAc
Outline: as §1

[23] = molecular target: Fuc(a1-2)[Gal(a1-3)]Gal(b1-4)Glc
Outline: as §1

[24] = molecular target: Fuc(a1-2)[Gal(a1-3)]Gal(b1-4)GlcNAc
Outline: as §1

[25] = molecular target: Fuc(a1-2)[Gal(a1-3)]Gal(b1-4)[Fuc(a1-3)]GlcNAc
Outline: as §1

[26] = molecular target: Fuc(a1-2)[Gal(a1-4)]Gal(b1-4)GlcNAc
Outline: as §1

[27] = molecular target: Fuc(a1-2)[GalNAc(a1-3)]Gal
Outline: as §1

[28] = molecular target: Fuc(a1-2)[GalNAc(a1-3)]Gal(b1-3)GlcNAc
Outline: as §1

[29] = molecular target: Fuc(a1-2)[GalNAc(a1-3)]Gal(b1-4)Glc
Outline: as §1

[30] = molecular target: Fuc(a1-2)[GalNAc(a1-3)]Gal(b1-4)GlcNAc
Outline: as §1

B1: TbCVNHOb (Tuber borchii) (protein)
chain: MSFYASSEDVRTIEEGGRTWLVGRARRADGSWQDIKLDLDNIIGNRDGHLTWGEQNFTQSASDIRFNFEGGSNVPVLRAKLRNAAGGEQESDLNLGERLTNNNGDLVFN
For B1, the “glycan array binding signal (z-score)” value [1] was 0.109, the “glycan array binding signal (z-score)” value [2] was -0.096 and the “glycan array binding signal (z-score)” value [3] was 0.011. The “glycan array binding signal (z-score)” value [4] was 0.303, the “glycan array binding signal (z-score)” value [5] was -0.101 and the “glycan array binding signal (z-score)” value [6] was 0.098. For the same binder, the “glycan array binding signal (z-score)” value [7] was 1.56, the “glycan array binding signal (z-score)” value [8] was 0.009 and the “glycan array binding signal (z-score)” value [9] was -0.13. For the same binder, the “glycan array binding signal (z-score)” value [10] was -0.208, the “glycan array binding signal (z-score)” value [11] was -0.037 and the “glycan array binding signal (z-score)” value [12] was -0.059. The “glycan array binding signal (z-score)” value [13] was 0.048, the “glycan array binding signal (z-score)” value [14] was 0.043 and the “glycan array binding signal (z-score)” value [15] was -0.012. The “glycan array binding signal (z-score)” value [16] was -0.184, the “glycan array binding signal (z-score)” value [17] was -0.041 and the “glycan array binding signal (z-score)” value [18] was -0.297. The “glycan array binding signal (z-score)” value [19] was -0.146, the “glycan array binding signal (z-score)” value [20] was -0.265 and the “glycan array binding signal (z-score)” value [21] was -0.159. For the same binder, the “glycan array binding signal (z-score)” value [22] was -0.095, the “glycan array binding signal (z-score)” value [23] was -0.181 and the “glycan array binding signal (z-score)” value [24] was -0.033. For the same binder, the “glycan array binding signal (z-score)” value [25] was -0.032, the “glycan array binding signal (z-score)” value [26] was -0.123 and the “glycan array binding signal (z-score)” value [27] was -0.125. For the same binder, the “glycan array binding signal (z-score)” value [28] was 0.078, the “glycan array binding signal (z-score)” value [29] was -0.147 and the “glycan array binding signal (z-score)” value [30] was -0.168.
